Experimental data reported in ChEMBL document CHEMBL1201862, “PubChem BioAssay data set” (2004).

These compounds were tested on NCI-H322M (assay: growth of human tumour cells (NCI), 48 h).

**Q.** Which GI50 does the source give for `O=C(O)CCC(=O)c1ccc[nH]1` here?
**A.** inactive: > 100 µM

**Q.** How did the GI50 turn out when `O=S1(=O)CCN(c2ccccc2CC(c2c[nH]c3ccccc23)c2c[nH]c3ccccc23)CC1` was run?
**A.** inactive: 14 µM

**Q.** `COc1ccc(OC)c(-c2cc(C(=O)O)c3cc4ccccc4cc3n2)c1` was tested. Which GI50 did it give?
**A.** inactive: > 100 µM

**Q.** For `Cc1cccc2c1c1ccc3c(c1n2C)C(=O)C=CC3=O`, which GI50 is on record?
**A.** inactive: 16.7 µM

**Q.** `O=C(O)c1cnc2cc(OCc3ccccc3)ccc2c1O` was tested. Which GI50 did it give?
**A.** inactive: 19.8 µM

**Q.** How did the GI50 turn out when `O=S(=O)(O)n1ccnc1` was run?
**A.** inactive: > 100 µM

**Q.** How did the GI50 turn out when `CSc1nc2c(=O)n(-c3ccccc3)c(=S)n(-c3ccccc3)c2s1` was run?
**A.** inactive: > 100 µM

**Q.** With `O=C(O)CNc1ncc2c(n1)-c1ccccc1OC2` as the compound, how does the GI50 read?
**A.** inactive: > 100 µM

**Q.** With `Cn1c(=O)cc(Nc2ccc(N)cc2)[nH]c1=O` as the compound, how does the GI50 read?
**A.** inactive: > 100 µM

**Q.** Which GI50 does the source give for `CC(C)(C)N/N=C(\C(=O)NC1=C(Cl)C(=O)c2ccccc2C1=O)C1C=CCS1(=O)=O` (stereo not given) here?
**A.** inactive: 15.4 µM

**Q.** For `CC(=O)OC1OC(c2ccoc2)C[C@@]12C1CCC3O[C@]3(C)[C@]1(C)C[C@H](OC(C)=O)[C@H]2C` (stereo not given in full), which GI50 is on record?
**A.** inactive: > 75 µM

**Q.** With `O=[N+]([O-])c1ccc2c(c1)Cc1cc(/N=C/c3ccc4c(c3)OCO4)ccc1-2` as the compound, how does the GI50 read?
**A.** inactive: > 100 µM

**Q.** How did the GI50 turn out when `Cc1ccc(NC(=O)CCc2n[nH]c(=S)o2)cc1` was run?
**A.** inactive: > 100 µM

**Q.** With `O=C(O)CSCC(=O)Nc1ccc2cccc3c2c1CC3` as the compound, how does the GI50 read?
**A.** inactive: > 100 µM

**Q.** How did the GI50 turn out when `COc1ccc(C2=C[C@]3(O)CCCN3C[C@@H]2c2ccc(OC)c(OC)c2)cc1` was run?
**A.** active: < 0.0001 µM

**Q.** `CC1OC(CC(=O)O)Cc2c(O)c3c(c(O)c21)C(=O)C=C(C1=CC(=O)c2c(O)c4c(c(O)c2C1=O)CC(CC(=O)O)OC4C)C3=O` (stereo not given) was tested. Which GI50 did it give?
**A.** inactive: 59.2 µM

**Q.** Which GI50 does the source give for `NC(N)=NCCC[C@H](N)C(=O)NCC(=O)N[C@@H](CC(=O)O)c1ncc(NC(=O)C(F)(F)F)o1` here?
**A.** inactive: > 25 µM

**Q.** How did the GI50 turn out when `COc1ncc(/C=C2\OC(=O)c3ccccc32)c(OC)n1` was run?
**A.** inactive: > 100 µM

**Q.** `Cc1c(C#N)c2nnn(-c3ccc(Cl)cc3)c(=O)n2c1-c1ccccc1` was tested. Which GI50 did it give?
**A.** active: 0.124 µM

**Q.** `Cn1c(=O)c2c(nc3n2CCCC(=O)N3CC(O)CCl)n(C)c1=O` (stereo not given) was tested. Which GI50 did it give?
**A.** inactive: > 100 µM

**Q.** With `Cc1ccc(/C=N/C23CC4CC(CC(C4)C2)C3)cc1` as the compound, how does the GI50 read?
**A.** inactive: > 100 µM

**Q.** `COc1cc2c3c(c1OC)-c1ccccc1C(C(O)c1ccccc1)C3N(C)CC2` (stereo not given) was tested. Which GI50 did it give?
**A.** inactive: 64.7 µM

**Q.** How did the GI50 turn out when `CCOC(=O)/C(=C\c1ccc(OCc2ccccc2)c(OC)c1)C(=O)c1ccccc1` was run?
**A.** inactive: 48 µM

**Q.** How did the GI50 turn out when `O=C(O)c1ccccc1[Se][Se]c1ccccc1C(=O)O` was run?
**A.** inactive: 29.1 µM

**Q.** With `CC(C)(C)c1ccccc1NS(=O)(=O)c1ccccc1` as the compound, how does the GI50 read?
**A.** inactive: > 100 µM

**Q.** For `O=C(O)C1C2CCC(C2)C1c1ccccc1` (stereo not given), which GI50 is on record?
**A.** inactive: > 100 µM

**Q.** With `COc1ccc2c(c1)Oc1cc(O)ccc1[C@@H]2c1ccccc1C(=O)NC(C)c1ccccc1` (stereo not given in full) as the compound, how does the GI50 read?
**A.** inactive: 15.5 µM

**Q.** For `Clc1sc(Cl)c2c1[C@@H](Cl)C[C@@H]2Br`, which GI50 is on record?
**A.** inactive: > 100 µM

**Q.** Which GI50 does the source give for `CNC1C(O)C(OC2C(N)CC(N)C(OC3OC(C(C)O)C(O)C(O)C3N)C2O)OCC1(C)O` (stereo not given) here?
**A.** inactive: > 100 µM

**Q.** `Cc1cc2ncn(C3CCCCO3)c2cc1C` (stereo not given) was tested. Which GI50 did it give?
**A.** inactive: > 100 µM

**Q.** For `N#Cc1c(C(N)=O)ncn1Cc1ccccc1`, which GI50 is on record?
**A.** inactive: > 100 µM

**Q.** For `Cc1cccc(N2C(=O)C3ON(C(C(N)=O)c4ccccc4)C(c4c5ccccc5c(Cl)c5ccccc45)C3C2=O)c1C` (stereo not given), which GI50 is on record?
**A.** inactive: 14.6 µM

**Q.** For `COc1ccc(/C=N/NC(=O)NCCCN(C)C)cc1`, which GI50 is on record?
**A.** inactive: > 100 µM

**Q.** With `CCOC(=O)CCC(C(=O)OCC)n1nnc2ccc(Nc3c(C)[n+]([O-])c4cc(Cl)ccc4[n+]3[O-])cc21` (stereo not given) as the compound, how does the GI50 read?
**A.** inactive: 37.8 µM

**Q.** `COc1nc2c(c(O)c(C)c(=O)n2OC2OC(COC(C)=O)C(OC(C)=O)C(OC(C)=O)C2OC(C)=O)c(=O)n1C` (stereo not given) was tested. Which GI50 did it give?
**A.** inactive: > 100 µM

**Q.** How did the GI50 turn out when `O=S1(=O)OCCOS(=O)(=O)C1(F)Cc1ccccc1` was run?
**A.** inactive: > 100 µM

**Q.** For `Cc1cc(S(=O)(=O)N/C(=C(\C#N)C(=O)c2ccccc2)[n+]2ccc(N(C)C)cc2)c([S-])cc1Cl`, which GI50 is on record?
**A.** active: 0.285 µM

**Q.** For `CCOC(=O)C1=C(OS(=O)(=O)C(F)(F)F)CCCC1`, which GI50 is on record?
**A.** inactive: > 100 µM

**Q.** For `O=c1[nH]c(=O)n(C2OC(CO)C(O)C(O)C2O)cc1F` (stereo not given), which GI50 is on record?
**A.** inactive: > 100 µM

**Q.** For `CC(C)(c1ccccc1)c1ccc(Oc2ccc3c(c2)-c2nc-3nc3[nH]c(nc4nc(nc5[nH]c(n2)c2ccc(Oc6ccc(C(C)(C)c7ccccc7)cc6)cc52)-c2cc(Oc5ccc(C(C)(C)c6ccccc6)cc5)ccc2-4)c2ccc(Oc4ccc(C(C)(C)c5ccccc5)cc4)cc32)cc1`, which GI50 is on record?
**A.** inactive: > 100 µM

**Q.** For `COc1ccc2c3c(n(Cc4ccccc4)c(=O)c2c1)-c1cc(OC)c(OC)cc1C3C` (stereo not given), which GI50 is on record?
**A.** inactive: 33.7 µM

**Q.** With `COC(=O)c1ccccc1NC(=O)C(=O)NNC(=O)c1ccncc1` as the compound, how does the GI50 read?
**A.** inactive: > 100 µM

**Q.** For `C/C(=C\c1ccccc1)C(=O)c1c(C)cc(C)cc1C`, which GI50 is on record?
**A.** inactive: > 100 µM

**Q.** How did the GI50 turn out when `Nc1ccccc1S(=O)(=O)c1ccccc1` was run?
**A.** inactive: > 100 µM

**Q.** How did the GI50 turn out when `COc1cc2c(cc1OC)C(Cl)C(c1ccc(F)cc1)=C2Cl` (stereo not given) was run?
**A.** inactive: 17.1 µM

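A five-concentration, 48-hour dose response in 96-well plates underlies each endpoint, interpolated linearly between surrounding concentrations. Abbreviation: GI50, concentration required for 50% inhibition of growth.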 Active and inactive are the calls of the source. Rule as the data show it: active = GI50 up to about 1.1 µM and inactive = higher.
